Measurements: the supplement of paper PMC4967469
IC50 is the fitted dose that halves viability relative to control wells, and lower means more sensitive; fits outside the tested doses are given as limits. The AUC spans the tested range (256-fold, ending at the top dose) of the same fit; the more sensitive the line, the further below 1. For part of these data: Any top dose called inferred comes from the curve model; the source does not state it. For part of these data: Where an entry number is given, a second screen of the drug exists; the two often differ.

Assays:
Test in all cases: Viability of human cancer cell lines after 72 h of drug (GDSC screen)
[1] = compound: C=CC(=O)Nc1cc(-n2c(=O)ccc3cnc4ccc(-c5cn[nH]c5)cc4c32)ccc1C [QL-X-138]; conditions: top dose 10.24 µM; top dose inferred
Protocol: (§1)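 Human cancer cell lines in 384-well plates, medium with 10% serum, drug for 72 h over a 256-fold dose range (nine 2-fold or five 4-fold steps up to the top dose). Adherent lines were fixed and stained with the nucleic acid dye Syto60, suspension lines read with resazurin; signal relative to control wells, capped at 0 and 100%. One two-parameter sigmoid per drug and line, fitted in a mixed model over all curves with the slope shared within a line.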

[2] = compound: CCn1c(-c2nonc2N)nc2cnc(Oc3cccc(NC(=O)c4ccc(OCCN5CCOCC5)cc4)c3)cc21 [GSK269962A]; conditions: top dose inferred
Protocol: as §1

[3] = compound: COc1cc(N2CCC(O)CC2)ccc1Nc1cc(Nc2ccccc2S(=O)(=O)C(C)C)c2cc[nH]c2n1 [MPS-1-IN-1]; conditions: top dose 20 µM; top dose inferred
Protocol: as §1

[4] = compound: COc1cc2ncnc(-n3nc(-c4ccccn4)nc3N)c2cc1OC [CP466722]; conditions: top dose 16 µM; top dose inferred
Protocol: as §1

[5] = compound: COc1nc(C)cnc1NS(=O)(=O)c1cccnc1-c1ccc(-c2nnco2)cc1 [Zibotentan]; conditions: top dose 20 µM; top dose inferred
Protocol: as §1

[6] = compound: C[C@]1(c2nc3c(C(N)=O)cccc3[nH]2)CCCN1 [ABT-888]; conditions: top dose 5 µM; top dose inferred
Protocol: as §1

[7] = compound: Cc1ccc(-c2c(C(=O)CCl)n(CCCO)c3ncnc(N)c23)cc1 [CMK]; conditions: top dose 4 µM; top dose inferred
Protocol: as §1

[8] = compound: Cc1ccc(F)c(NC(=O)Nc2ccc(-c3cccc4[nH]nc(N)c34)cc2)c1 [ABT-869]; conditions: top dose 1.024 µM; top dose inferred
Protocol: as §1

[9] = compound: Cc1cnc(-c2cnc(NCCNc3ccc(C#N)cn3)nc2-c2ccc(Cl)cc2Cl)[nH]1 [CHIR-99021]
Protocol: as §1

[10] = compound: O=c1cc(-c2cccc3c2Sc2ccccc2S3)oc(N2CCOCC2)c1 [KU-55933]; conditions: top dose 10 µM
Protocol: as §1

[11] = compound: C/C=C(/C)C(=O)O[C@H]1C(C)=C2[C@H]([C@@H]1OC(=O)CCCCCCC)[C@@](C)(OC(C)=O)C[C@H](OC(=O)CCC)[C@@]1(O)[C@H]2OC(=O)[C@@]1(C)O [Thapsigargin]; conditions: top dose 0.512 µM; top dose inferred
Protocol: as §1

[12] = compound: COc1cc(O)c2c(c1)/C=C/C[C@H](O)[C@H](O)C(=O)/C=C\C[C@H](C)OC2=O [(5Z)-7-Oxozeaenol]; conditions: top dose 10 µM; top dose inferred
Protocol: as §1

[13] = top dose 2.5 µM, screen: GDSC drug entry 127
[14] = top dose 2.56 µM, screen: GDSC drug entry 154
[15] = top dose 5 µM, screen: GDSC drug entry 1192
[16] = top dose 10 µM, screen: GDSC drug entry 1241, top dose inferred

Cell Line	AUC [1]	IC50 [1]	AUC [2, 13]	IC50 [2, 13]	AUC [3]	IC50 [3]	AUC [4]	IC50 [4]	AUC [5]	IC50 [5]	AUC [6]	IC50 [6]	AUC [7]	IC50 [7]	AUC [8]	IC50 [8]	AUC [9, 14]	IC50 [9, 14]	AUC [10]	IC50 [10]	AUC [11]	IC50 [11]	AUC [2, 15]	IC50 [2, 15]	AUC [12]	IC50 [12]	AUC [9, 16]	IC50 [9, 16]
MY-M12 (leukaemia, suspension)	0.282	0.141 µM	0.47	0.128 µM	0.836	15.8 µM	0.571	1.6 µM	0.967	> 20 µM	0.981	> 5 µM	0.83	2.96 µM	0.98	> 1.02 µM	0.862	> 2.56 µM	0.957	> 10 µM								
MZ7-mel (melanoma, adherent)	0.968	> 10.2 µM	0.987	> 2.5 µM	0.933	> 20 µM	0.986	> 16 µM	0.986	> 20 µM			0.893	> 4 µM	0.98	> 1.02 µM	0.966	> 2.56 µM	0.968	> 10 µM	0.448	0.0229 µM	0.985	> 5 µM	0.19	0.0712 µM	0.985	> 10 µM
NB7 (neuroblastoma, adherent)	0.349	0.238 µM	0.96	> 2.5 µM	0.903	> 20 µM	0.826	10.3 µM	0.986	> 20 µM			0.944	> 4 µM	0.981	> 1.02 µM	0.986	> 2.56 µM	0.984	> 10 µM	0.118	< 0.002 µM	0.929	> 5 µM	0.92	> 10 µM	0.908	> 10 µM
NCI-H1355 (lung adenocarcinoma, adherent)	0.94	> 10.2 µM	0.889	> 2.5 µM	0.968	> 20 µM	0.845	> 16 µM	0.978	> 20 µM			0.89	> 4 µM	0.974	> 1.02 µM	0.972	> 2.56 µM	0.915	> 10 µM	0.287	0.00602 µM	0.841	> 5 µM	0.755	4.85 µM	0.972	> 10 µM
RS4-11 (leukaemia, suspension)	0.333	0.23 µM	0.975	> 2.5 µM	0.689	4.01 µM	0.611	1.97 µM	0.973	> 20 µM			0.976	> 4 µM	0.989	> 1.02 µM	0.865	1.94 µM	0.875	8.4 µM	0.162	0.00336 µM	0.931	> 5 µM	0.79	4.05 µM	0.919	> 10 µM
SCC-15 (head and neck, adherent)	0.812	7.98 µM			0.916	> 20 µM	0.815	12.9 µM	0.98	> 20 µM			0.899	> 4 µM	0.977	> 1.02 µM	0.98	> 2.56 µM	0.928	> 10 µM	0.341	0.00989 µM	0.893	> 5 µM	0.703	2.87 µM	0.978	> 10 µM
SU-DHL-8 (B-cell lymphoma, suspension)	0.256	0.136 µM	0.565	0.232 µM	0.827	11.1 µM	0.649	2.51 µM	0.97	> 20 µM			0.716	0.971 µM	0.987	> 1.02 µM	0.988	> 2.56 µM	0.988	> 10 µM	0.231	0.00565 µM	0.951	> 5 µM	0.72	2.5 µM	0.981	> 10 µM
TC-71 (Ewing sarcoma, adherent)	0.619	1.28 µM	0.963	> 2.5 µM	0.724	4.73 µM	0.717	3.61 µM	0.987	> 20 µM			0.991	> 4 µM	0.992	> 1.02 µM	0.99	> 2.56 µM	0.981	> 10 µM	0.79	0.186 µM	0.912	> 5 µM	0.68	1.8 µM	0.964	> 10 µM
TE-10 (oesophagus, adherent)	0.863	8.57 µM	0.951	> 2.5 µM	0.929	> 20 µM	0.78	6.43 µM	0.988	> 20 µM			0.891	> 4 µM	0.983	> 1.02 µM	0.984	> 2.56 µM	0.983	> 10 µM	0.197	0.00414 µM	0.832	3.1 µM	0.604	1.2 µM	0.981	> 10 µM
THP-1 (acute myeloid leukaemia, suspension)	0.516	0.705 µM	0.982	> 2.5 µM	0.841	12 µM	0.693	3.27 µM	0.986	> 20 µM			0.975	> 4 µM	0.964	> 1.02 µM	0.989	> 2.56 µM	0.976	> 10 µM	0.436	0.0217 µM	0.964	> 5 µM	0.903	> 10 µM	0.99	> 10 µM
